The results in this text go back to paper PMC3050892.

By UniProt entry, the sequences of proteins in these tests, tags left out. Where a name states a change or a piece, a line headed by the entry shows the natural chain unless it says otherwise. Chains listed by the source or under a name are the forms on record and can include a tag or linker. Residues count along the entry.
stimulated by retinoic acid 13 (A8MT69-2, form named): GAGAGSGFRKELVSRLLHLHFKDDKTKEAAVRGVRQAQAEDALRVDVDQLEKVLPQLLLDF
UniProt Q71F23, residues 243-263: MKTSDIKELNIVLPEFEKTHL
UniProt Q75QN2, residues 508-816: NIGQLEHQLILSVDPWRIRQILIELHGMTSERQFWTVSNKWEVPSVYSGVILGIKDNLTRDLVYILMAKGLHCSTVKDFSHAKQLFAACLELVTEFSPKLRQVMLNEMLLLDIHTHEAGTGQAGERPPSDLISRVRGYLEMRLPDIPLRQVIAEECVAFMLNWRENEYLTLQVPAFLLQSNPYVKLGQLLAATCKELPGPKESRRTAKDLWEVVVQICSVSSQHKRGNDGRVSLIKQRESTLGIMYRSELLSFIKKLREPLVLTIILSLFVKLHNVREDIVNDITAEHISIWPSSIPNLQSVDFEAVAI

No constants are given. Whether binding was seen depends on the method and setting. Some binding calls cover weakened binding; strength is not graded here.

For experiment [1], the target named is T1, human FEZ2 (207–353) (human) (UniProt Q9UHY8).
T1 sequence: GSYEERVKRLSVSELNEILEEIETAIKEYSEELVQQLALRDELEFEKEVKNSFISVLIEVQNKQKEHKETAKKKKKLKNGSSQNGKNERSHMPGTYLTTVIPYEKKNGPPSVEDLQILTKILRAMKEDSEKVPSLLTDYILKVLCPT
As to the kind of experiment: two-hybrid; LexA-bait fusions (pBTM116) of FEZ2 (207-353), FEZ1 (221-392) or UNC-76 C-terminus against pACT2 prey clones in yeast L40; clones first isolated in library screens (human fetal brain and bone marrow cDNA) with the FEZ2 bait, then one representative clone of each prey tested one-to-one against the three baits; growth on minimal medium without Trp, Leu, His (10 mM 3-AT in the screen) and beta-galactosidase filter assay; in duplicate.

In experiment [2] the target is T2, human FEZ1 (221–392) (human) (UniProt Q99689).
T2 sequence: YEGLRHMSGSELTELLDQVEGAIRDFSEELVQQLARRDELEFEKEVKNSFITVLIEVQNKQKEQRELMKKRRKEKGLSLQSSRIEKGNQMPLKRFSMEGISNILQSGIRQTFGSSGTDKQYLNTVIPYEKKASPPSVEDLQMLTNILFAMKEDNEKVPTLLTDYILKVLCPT
The description is as above.

As to “stimulated by retinoic acid 13 (from UniProt A8MT69-2 3-63) (domain or fragment)”, the binding result in experiment [1] and in experiment [2] was “binds” each time.
“MLF1 interacting protein (from UniProt Q71F23-1 243-263) (domain or fragment)”: the binding entry in experiment [1] and in experiment [2] was “binds” in each case.
With “integrator complex subunit 8 (from UniProt Q75QN2-1 508-816) (domain or fragment)”, the binding entry in experiment [1] and in experiment [2] was “binds” throughout.

B1: amplified in osteosarcoma isoform 1 precursor (domain or fragment, UniProt Q13438-1 389-635)
chain: VDDAAEVPQREPEKERGDPERQREMEEEEDEDEDEDEDEDERQLLGEFEKELEGILLPSDRDRLRSEVKAGMERELENIIQETEKELDPDGLKKESERDRAMLALTSTLNKLIKRLEEKQSPELVKKHKKKRVVPKKPPPSPQPTEEDPEHRVRVRVTKLRLGGPNQDLTVLEMKRENPQLKQIEGLVKELLEREGLTAAGKIEIKIVRPWAEGTEEGARWLTDEDTRNLKEIFFNILVPGAEEAQK
Take B1: the binding result in experiment [1] and in experiment [2] was “binds” each time.

B2: Pigment epithelium-derived factor precursor (PEDF) (domain or fragment, UniProt P36955 16-267)
chain: HSSCQNPASPPEEGSPDPDSTGALVEEEDPFFKVPVNKLAAAVSNFGYDLYRVRSSTSPTTNVLLSPLSVATALSALSLGAEQRTESIIHRALYYDLISSPDIHGTYKELLDTVTAPQKNLKSASRIVFEKKLRIKSSFVAPLEKSYGTRPRVLTGNPRLDLQEINNWVQAQMKGKLARSTKEIPDEISILLLGVAHFKGQWVTKFDSRKTSLEDFYLDEERTVRVPMMSDPKAVLRYGLDSDLSCKIAQLP
Consider B2, for which the binding result is “binds” in experiment [1] and “no binding” in experiment [2].

B3: Translocation protein SEC62 (domain or fragment, UniProt Q99442 2-95)
chain: AERRRHKKRIQEVGEPSKEEKAVAKYLRFNCPTKSTNMMGHRVDYFIASKAVDCLLDSKWAKAKKGEEALFTTRESVVDYCNRLLKKQFFHRAL
With B3, the binding entry was “binds” in experiment [1] and “no binding” in experiment [2].

B4: Platelet receptor Gi24 precursor (domain or fragment, UniProt Q9H7M9 215-311)
chain: VYKQRQAASNRRAQELVRMDSNIQGIENPGFEASPPAQGIPEAKVRHPLSYVAQRQPSESGRHLLSEPSTPLSPPGPGDVFFPSLDPVPDSPNFEVI
For B4, the binding entry in experiment [1] is “binds”; in experiment [2], “no binding”.

B5: DR1-associated protein 1 (domain or fragment, UniProt Q14919-1 1-133)
chain: MPSKKKKYNARFPPARIKKIMQTDEEIGKVAAAVPVIISRALELFLESLLKKACQVTQSRNAKTMTTSHLKQCIELEQQFDFLKDLVASVPDMQGDGEDNHMDGDKGARRGRKPGSGGRKNGGMGTKSKDKKL
As to B5, the binding entry in experiment [1] and in experiment [2] was “binds” in each case.

B6: hypothetical protein LOC119392 isoform a (domain or fragment, UniProt Q86XK3-1 6-245)
chain: KNQDFTFKMESPSDSAVVLPSTPQASANPSSPYTNSSRKQPMSATLRERLRKTRFSFNSSYNVVKRLKVESEENDQTFSEKPASSTEENCLEFQESFKHIDSEFEENTNLKNTLKNLNVCESQSLDSGSCSALQNEFVSEKLPKQRLNAEKAKLVKQVQEKEDLLRRLKLVKMYRSKNDLSQLQLLIKKWRSCSQLLLYELQSAVSEENKKLSLTQLIDHYGLDDKLLHYNRSEEEFIDV
As to B6, the binding entry in experiment [1] and in experiment [2] was “binds” in each case.

B7: SAP30-like (protein, UniProt Q9HAJ7-1 1-183)
chain: MNGFSTEEDSREGPPAAPAAAAPGYGQSCCLIEDGERCVRPAGNASFSKRVQKSISQKKLKLDIDKSVRHLYICDFHKNFIQSVRNKRKRKTSDDGGDSPEHDTDIPEVDLFQLQVNTLRRYKRHYKLQTRPGFNKAQLAETVSRHFRNIPVNEKETLAYFIYMVKSNKSRLDQKSEGGKQLE
As for B7, the binding result in experiment [1] and in experiment [2] was “binds” throughout.

B8: TBC1 domain family, member 25 (domain or fragment, UniProt Q3MII6-1 498-677)
chain: GGRLLRQASLDGLQQLRDNMGSRRDPLVQLPHPAALISSKSLSEPLLNSPDPLLSSFSHPDSPSSSSPPSTQEASPTGDMAVGSPLMQEVGSPKDPGKSLPPVPPMGLPPPQEFGRGNPFMLFLCLAILLEHRDHIMRNGLDYNELAMHFDRLVRKHHLGRVLRRARALFADYLQSEVWD
Consider B8, for which the binding entry in experiment [1] and in experiment [2] was “binds” each time.

B9: zygin 1 isoform 2 (domain or fragment, UniProt Q99689-2 1-89)
chain: MEAPLVSLDEEFEDLRPSCSEDPEEKPQCFYGSSPHHLEDPSLSELENFSSEIISFKSMEDLVNEFDEKLNVCFRNYNAKTENLAPVKN
For the molecule B9, the binding result is “binds” in experiment [1] and “no binding” in experiment [2].
